Laboratory results published in PubChem BioAssay AID1963576 (National Center for Advancing Translational Sciences (NCATS), 2024).
Screen size: about 46,000 compounds; about 60 (0.1%) were called active. Inconclusive results (about 3%) are left out. The call rests on the fitted dose curve; in most records, active means well fitted inhibition curve with a large enough effect; inconclusive means small, poorly fitted or top-dose-only effect; inactive means no such curve, though single readings can be large or run the other way. The list shows a part of the results.

assay: Primary qHTS assay for Inhibitors of ovarian cancer metastasis using an organotypic tumor microenvironment (TME) model.; further: nearly all actives have a fitted effect of over 65% in size;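 on activity change, negative = inhibition: plate controls were DMSO wells for no effect and tomatine positive control wells for full effect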; conditions: SKOV3ip1-GFP adhesion/invasion on 3D omental model, fluorescence; series mostly up to 45.8 µM; activity change, negative = inhibition: at the top concentration
Procedure, shortened: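 A 3D layer of primary human omental fibroblasts, mesothelial cells, fibronectin and collagen I, grown 48 hr, received SKOV3ip1-GFP cells in serum-free medium plus compounds at 0.36-46 umol/L. After 2 hr RT and 16 hr 37 C, fixed adherent GFP cells were counted; normalized to DMSO and tomatine.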

Activity change, negative = inhibition, inactive:
CCOc1ccc(N2CC(NC(=O)Cc3cccs3)CC2=O)cc1 (configuration not stated) -5.64%, COc1ccc(-c2nc3ccccc3o2)cc1NC(=O)c1cccc2c(Cl)cccc12 -5.15%, COc1ccc2cc(-c3nc(-c4ccc(N(C)C)cc4)no3)c(=O)oc2c1 -7.66%, CN(Cc1ccccc1)c1ccc2cc(S(=O)(=O)N3CCCCC3)ccc2n1 0.323%, CCOc1ccc(NC(=O)CCc2c(C)nc3c4c(C)cc(C)nc4nn3c2C)cc1 -2.73%, CC(NCc1ccc2c(c1)n(C)c(=O)n2C)c1ccccc1 (configuration not stated) 0.243%, NC(=O)c1ccc(I)c([N+](=O)[O-])c1 -6.91%, c1ccc(-c2oc3ncnc(NC[C@@H]4CCCO4)c3c2-c2ccccc2)cc1 -0.781%, COc1cccc(-c2cc(C(=O)NCc3ccccc3)no2)c1 1.88%, COc1ccc(N2CCN(C(=O)c3ccc4c(c3)CCN4S(=O)(=O)c3ccccc3)CC2)cc1 -7.7%, Cc1noc2ncnc(NCCc3ccccc3)c12 8.47%, CCC12CN3CC(CC)(CN(C1)C3c1c[nH]c3ccccc13)C2=O (configuration not stated) -4.07%, Cc1cc(C)n2nc(CNC(=O)c3cccc(N(C)C)c3)nc2n1 -2.73%, Cc1ccc(-c2cn3c(n2)sc2cc(C(=O)NC4CCCCCC4)ccc23)cc1 15.6%, COCCCNC(=O)C1CCN(Cc2cc3ccccc3n2Cc2cccc(Cl)c2)CC1 -0.148%, COc1ccc(Br)cc1CNC(=O)C1CCN(c2nnc(-n3cccc3CNc3ccc(C)cc3)s2)CC1 4.24%, Cc1ccc(NS(=O)(=O)c2ccc3nc(-c4ccccc4)[nH]c3c2)cc1Cl -8%, CCOc1ccccc1NC(=O)C1CCCN(S(=O)(=O)c2cccs2)C1 (configuration not stated) 0.923%, COc1ccc(NC(=O)c2sc3nc4n(c(=O)c3c2C)CCC4)c(OC)c1 -6.63%, CCCCOc1ccccc1NC(=O)CC1Sc2ccccc2NC1=O (configuration not stated) -9.2%, COc1ccccc1Cc1nc2ccccc2nc1SCC(=O)N1CCCCC1 2.8%, Cc1noc(/C=C/c2ccccc2F)c1S(=O)(=O)N1CCC(C(=O)NCc2ccco2)CC1 -6.51%, CCOC(=O)N1CCN(c2ncc3c(n2)CC(c2ccc(OC)c(OC)c2)CC3=O)CC1 (configuration not stated) 8.3%, CCOC(=O)c1ccccc1NC(=O)N1CCCn2nc(C)cc21 1.06%, Cc1ccccc1C(=O)Nc1nnc(S(=O)(=O)N2CCc3ccccc32)s1 -2.54%, CC(=O)N1CCCc2cc(S(=O)(=O)N3CCC(C(=O)N(C)C4CCCCC4)CC3)ccc21 4.87%, CCc1ccc(NC(=O)Cn2c(=O)n(Cc3ccc(C)cc3)c(=O)c3cccnc32)cc1 1.16%, O=C(CCS(=O)(=O)c1cc(Br)cc2c1N(C(=O)C1CC1)CC2)N1CCN(c2ccccc2)CC1 -28.4%, Cc1ccccc1Cn1nnc2c(=O)[nH]c(C3CCCN(C(=O)c4ccc(C(C)(C)C)cc4)C3)nc21 (configuration not stated) -6.74%, Cc1nnc2c3ccccc3nc(N3CCN(c4ccccc4)CC3)n12 0.896%, CCOc1ccc(C2CC(=O)c3c([nH]c(C(=O)OCCOc4ccccc4)c3C)C2)cc1 (configuration not stated) -11.5%, O=C(CCc1ccccc1)N(Cc1cccnc1)c1nc2ccc(F)cc2s1 -7.35%, CCOCCCNC(=O)C1CCCN(c2ncnc3onc(C)c23)C1 (configuration not stated) -1.7%, N#Cc1c(-c2ccccc2)cc(-c2ccccc2)nc1SCC(O)CS(=O)(=O)Cc1ccccc1 (configuration not stated) 0.94%, O=C(Cn1cc(SCc2ccc(F)cc2)c2ccccc21)N1CCCCCC1 -8.26%, CCOc1ccc(NC(=O)c2cnn(-c3ccccc3)c2-n2cccc2)cc1 5.78%, CCN(CC)C(=O)CSc1nc2c(c(=O)n(C)c(=O)n2C)n1Cc1ccccc1 2.87%, Cc1ccc2c(CNC3CCCC3)c(C(=O)O)n(Cc3ccc(F)cc3)c2c1 7.2%, CN(C(=O)CSc1nc2ccccc2n1CC(=O)N(C)C1CCCCC1)c1ccccc1 6.05%, CCCCNC(=O)CCn1c(=O)c2ccccc2n(Cc2cccc(Cl)c2)c1=O 7.08%, Cc1cccc(NC(=O)CN2C(=O)CCn3nc(-c4cccn4C)cc32)c1C -2.69%, COc1ccc(NC(=O)C2CCN(S(=O)(=O)c3cc(-c4noc(C)n4)ccc3C)CC2)cc1 2.49%, Cc1ccc(C)c(NC(=O)c2cc(S(=O)(=O)NCCc3ccccc3)ccc2F)c1 1.02%, O=C(O)c1ccc(O)c2ncc(N3CCOCC3)cc12 4.35%, CCCCN(CC)C(=O)C1CCCN(c2ncnc3c2nc2n3CCCCC2)C1 (configuration not stated) 7.26%

outcome, inactive:
COc1ccc(NC(=O)CC2C(=O)N(c3ccc(OC)cc3)C(=O)N2Cc2ccc(OC)c(OC)c2)cc1 (configuration not stated), Cc1ccc(C)c(CSc2cn(CC(=O)N3CCCC3)c3ccccc23)c1, COc1cc(NC(=O)CSc2cc(=O)n(C)c3ccccc23)cc(OC)c1OC, Cc1c(C(=O)N(C)Cc2ccccc2)sc2nc(-c3ccc(F)cc3)cn12, CSc1nn(CC(=O)Nc2ccc(C)cc2C)c(N)c1S(=O)(=O)c1ccc(Cl)cc1, CCn1cc(C(=O)N(C)c2cc(C)ccc2C)c2cc(OC)c(OC)cc2c1=O, COc1ccc(NS(=O)(=O)c2ccc3c(c2)CC(C)N3C(=O)C2CCC2)cc1OC (configuration not stated), COc1cc2c(C(=O)N3CCN(c4ccc(F)cc4)CC3)cn(CC(C)C)c(=O)c2cc1OC, COc1ccc(CCNC(=O)CCc2c(C)nc3cc(-c4ccc(Cl)cc4)nn3c2C)c(OC)c1, Cc1cc(C)cc(N2C(=O)CSC23C(=O)N(CC(=O)NC2CCCCC2)c2ccccc23)c1 (configuration not stated), CNC(=O)C1CCN(C(=O)N2CC(C)Oc3ccc(Cl)cc32)CC1 (configuration not stated), COc1ccc(OC)c(CCNC(=O)c2cnn(-c3ccccc3)c2-n2cccc2)c1, O=C(c1ccc2c(c1)N(Cc1cccc(Cl)c1)C(=O)c1ccccc1S2(=O)=O)N1CCCC1, CCOC(=O)C1CCCN(C(=O)c2ccccc2NC(=O)c2nsc3ccccc23)C1 (configuration not stated), CCOC(=O)C1CCCN(C(=O)c2ccc3c(c2)N(Cc2ccc(Cl)cc2)C(=O)c2ccccc2S3=O)C1 (configuration not stated), Cc1noc(/C=C/c2ccccc2F)c1S(=O)(=O)N1CCC(C(=O)Nc2ccc(C#N)cc2)CC1, CCOc1ccc(CNC(=O)CCn2c(=O)c3cccn3c3ccc(F)cc32)cc1
